Experimental data: the supplement of paper PMC7125110
Variants at the background level are over-represented here.

B1: glmS ribozyme (parent)
chain: AUAAAAGCGCCAGAACUACAGAAAUGUAGUUGACGAGGAGGAGGUUUAUCGAAUUUUCGGCGGAUGCCUCCAAA

Key:
Settings in all cases: with glucosamine-6-phosphate
glucosamine-6-phosphate [1] = variants of: B1; test: self-cleavage kobs at 640 uM GlcN6P; higher = faster cleavage; RNA array
In short: (§1)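 Using a hybridised Cy3 probe at 37 °C, barcoded ribozyme variants transcribed in situ by E. coli RNA polymerase on sequenced MiSeq chips were monitored across tiles imaged over ~14 h. The flow contained glucosamine-6-phosphate from 40 μM to 10 mM in HEPES/KCl/Mg(OAc)2 buffer. Signals were normalised to baseline and to non-cleaving reference variants before per-tile medians were fit to one- or two-exponential decays to yield kobs. Weighted Michaelis–Menten fits across concentrations gave kcat and KM.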

glucosamine-6-phosphate [2] = variants of: B1; test: self-cleavage kobs at 2500 uM GlcN6P; higher = faster cleavage; RNA array
In short: as §1

glucosamine-6-phosphate [3] = variants of: B1; test: self-cleavage kobs at 10000 uM GlcN6P; higher = faster cleavage; RNA array
In short: as §1

glucosamine-6-phosphate [4] = variants of: B1; test: self-cleavage kobs at 160 uM GlcN6P; higher = faster cleavage; RNA array
In short: as §1

Variant	self-cleavage kobs at 640 uM GlcN6P (glucosamine-6-phosphate [1])	self-cleavage kobs at 2500 uM GlcN6P (glucosamine-6-phosphate [2])	self-cleavage kobs at 10000 uM GlcN6P (glucosamine-6-phosphate [3])	self-cleavage kobs at 160 uM GlcN6P (glucosamine-6-phosphate [4])
AUAAACGCGCCAUAACUACAGAAAUGUAUUUGACGAGGAGGAGGUUUAUCGAAUUUUCGGCGGAUGUCUCCAAA [A6C G13U G29U C67U]	< 1e-05 s⁻¹	–	–	–
AUAAACGCGCCAGAACUACAGAAAUGUAGUUGACGAGGAGGAGGUUUAUCGAAUUUACGGUGGAUGCCUCCAAA [A6C U57A C61U]	< 1e-05 s⁻¹	< 1e-05 s⁻¹	–	–
AUAAAGGCGCCAGAACUACAGAAAUGUAGUUGACGAAGAGAAGGUUUAUCGAAUUUUCGGCGGAUGCCUCCAAA [A6G G37A G41A]	< 1e-05 s⁻¹	< 1e-05 s⁻¹	< 1e-05 s⁻¹	–
AUAAACGCGCCAGAACUACAGAAAUGUAGUUGACAAGGAGGAGGUUUAUCGAAUUUUCGGCGUAUGCCUCCAAA [A6C G35A G63U]	< 1e-05 s⁻¹	–	< 1e-05 s⁻¹	< 1e-05 s⁻¹
AUAAACGCGCAAGAACUACAGAAAUGUAGUUGACAAGGAGGAGGUUUAUCGAAUUUUCGGCGGAUGCCUCCAAA [A6C C11A G35A]	< 1e-05 s⁻¹	< 1e-05 s⁻¹	–	–
AUAAACGCGCCAGAACUACAGAAAUGUAGUUGACGAGGAGGAGAUUUAUCUAAUUUUCGGCGGAUGCCUCCAAA [A6C G44A G51U]	< 1e-05 s⁻¹	< 1e-05 s⁻¹	–	–
AUAAACGCGCCAGAACUACAGAAAUGUAGUUGACGAUGAGGAGGUUUAUCGAAUUCUCGGCGGAUGCCUCCAAA [A6C G37U U56C]	< 1e-05 s⁻¹	< 1e-05 s⁻¹	–	–
AUAAAGGCGCCAGCACUACAGAAAUGUAGUUGACGAGGAGGGGGUUUAUCGAAUUUUCGCCGGAUGCCUCCAAA [A6G A14C A42G G60C]	< 1e-05 s⁻¹	–	< 1e-05 s⁻¹	< 1e-05 s⁻¹
AUAAAGGCGCCAGAUCUACAGAAAUGUAGUUGACGAGGAGGAGGUUUAUCGAAUUUUCGGCUGAUGCCUCCAAA [A6G A15U G62U]	< 1e-05 s⁻¹	< 1e-05 s⁻¹	–	< 1e-05 s⁻¹
AUAAACGCGCCAGAACUACAGAAAUGUAGUUGACGAGGAGGAAGUUUAUCGAAUUUUCGGCGGUUGCCUCCAAA [A6C G43A A64U]	< 1e-05 s⁻¹	–	–	–
AUAAAGGCGCCAGAACUACAGAAAUGUAGUUGACGAGGAGGAGGUUUAUCGUAUUUUCGGCGGAUACCUCCAAA [A6G A52U G66A]	< 1e-05 s⁻¹	< 1e-05 s⁻¹	–	< 1e-05 s⁻¹
AUAAACGCGCCAGAACUACAGAAAUGUAGUUGACGACGAGGAGGUUUAUCGAAUUUUCGGCCGAUGCCUCCAAA [A6C G37C G62C]	< 1e-05 s⁻¹	–	–	–
AUAAAGGCGCCAGAACUACAGAAAUGUAGUUCACGAGAAGGAGGUUUAUCGAAUCUUCGGCGGAUGCCUCCAAA [A6G G32C G38A U55C]	< 1e-05 s⁻¹	< 1e-05 s⁻¹	–	–
AUAAAGGCGCCACAACUACAGAAAUGUAGUUGACGAGGAGGAGGUUUAUCGAAUUUUCGGCGGAUUCCUCCAAA [A6G G13C G66U]	< 1e-05 s⁻¹	< 1e-05 s⁻¹	< 1e-05 s⁻¹	–
AUAAACGCCCCAGAACUACAGAAAUGUAGUUGACGAGGAGGAGGUUUAUCGUAUUUUCGGCGGAUGCCUCCAAA [A6C G9C A52U]	< 1e-05 s⁻¹	–	–	–
AUAAACUCGCCAGAACUACAGAAAUGUAGUUGACGGGGAGGAGGUUUAUCGAAUUUUCGGCGGAUGUGUCAAAA [A6C G7U A36G C67U C68G C71A]	< 1e-05 s⁻¹	< 1e-05 s⁻¹	< 1e-05 s⁻¹	–
AUAAAGGCGCCUGAACUACAGAAAUGUAGUUGUCGAGGAGGAGGUUUAUCGAAUUUUCGGCGGAUGCCUCCAAA [A6G A12U A33U]	< 1e-05 s⁻¹	–	< 1e-05 s⁻¹	–
AUAAACGCUCCAGAACUACAGAAAUGUAGUUGACGAGGGGGAGGUUUAUCGAAUUUUCGGCGGAUUCCUCAAAA [A6C G9U A39G G66U C71A]	< 1e-05 s⁻¹	< 1e-05 s⁻¹	–	–

Variant	self-cleavage kobs at 640 uM GlcN6P (glucosamine-6-phosphate [1])	self-cleavage kobs at 2500 uM GlcN6P (glucosamine-6-phosphate [2])	self-cleavage kobs at 10000 uM GlcN6P (glucosamine-6-phosphate [3])	self-cleavage kobs at 160 uM GlcN6P (glucosamine-6-phosphate [4])
AUAAAGGCGCCAGAACUACAGAAAUGUAGUUGACGAGGAUCAGGUUUAUCGAUUUUUCGGCGGAUGCCUCCAAA [A6G G40U G41C A53U]	< 1e-05 s⁻¹	–	–	–
AUAAAGGCGCCAGAACUACAGAAAUGUAGUUGACGCGGAGGAUGUUUAUCGAAUUUUCGGCGGGUGCCUCCAAA [A6G A36C G43U A64G]	< 1e-05 s⁻¹	–	–	–
AUAAAGGCGCCAGAACUACAGAAAUGUAGUUGACGAGGAGGAAGUUUAUCGAAUUUUCGGCGGAUGCCUUCAAA [A6G G43A C70U]	< 1e-05 s⁻¹	< 1e-05 s⁻¹	< 1e-05 s⁻¹	< 1e-05 s⁻¹
AUAAAGGCGCCAUAACUACAGAAAUGUAGCUGACGAGGAGGAGGUUUAUCGGAUUUUCGGCGGAUGCCUCCAAA [A6G G13U U30C A52G]	< 1e-05 s⁻¹	< 1e-05 s⁻¹	–	< 1e-05 s⁻¹
AUAAAGGCGCCAGAACUACAGAAAUGUAGUUGAGGAGGAGGAGGUUUAUCUAAUUUUCGGCGAAUGCCUCCAAA [A6G C34G G51U G63A]	< 1e-05 s⁻¹	< 1e-05 s⁻¹	–	< 1e-05 s⁻¹
AUAAAGGCGCCAGAACUACAGAAAUGUAGUUGCCGAGGAGGAGGUUUAUUGAAUUUUCUGCGGAUGCCUCCAAA [A6G A33C C50U G59U]	< 1e-05 s⁻¹	–	–	< 1e-05 s⁻¹
AUAAAGGCGCCAGAACUACAGAAAUGUAGUUGACGAGCAGGAUGUUUAUCGAAUUAUCGGCGGAUGCCACCAAA [A6G G38C G43U U56A U69A]	< 1e-05 s⁻¹	< 1e-05 s⁻¹	–	–
AUAAACGCGCCAGAACUACAGAAAUGUAGUAGACGAGGAGGAGGUUUAUCGAAUUUUGGGCGGAUGCCUCCAAA [A6C U31A C58G]	< 1e-05 s⁻¹	< 1e-05 s⁻¹	–	–
AUAAAGGCGCCAGAACUACAGAAAUGUAGUUGACGAGUAGGAGGUUUAUCGAAUUUUCGGCGGGUCCCUCCAAA [A6G G38U A64G G66C]	< 1e-05 s⁻¹	–	–	–
AUAAACGCGCCAGAACUACAGAAAUGUAGUUCUCGAGGAGGAGGUUUAUCGAAUUUUCGGUGCAUGCCUUCAAA [A6C G32C A33U C61U G63C C70U]	< 1e-05 s⁻¹	< 1e-05 s⁻¹	–	–
AUAAAGGCGCCAGAACUACAGAAAUGUAGUUGACGAGAAGGAGGUUUAUCGAAUUUUAGGCGGAUCCCUCCAAA [A6G G38A C58A G66C]	< 1e-05 s⁻¹	–	–	–
AUAAAGGCGCCAGAACUACAGAAAUGUAGUUAACGAGGAGGCGGUUUAUCGAAUUUUCGGCGGAUGCCUCCAAA [A6G G32A A42C]	< 1e-05 s⁻¹	< 1e-05 s⁻¹	–	< 1e-05 s⁻¹
AUAAAGGCGCCAGAACUACAGAAAUGUAGUUUACGAGGAGGAGGUUUAUCAAAUUUUCGGCGGAUGCCUCCAAA [A6G G32U G51A]	< 1e-05 s⁻¹	< 1e-05 s⁻¹	–	–
AUAAACGCGCCAGAAAUACAGAAAUGUAGUCGACGAGGAGGAGGUUUAUCGAAUUUUCGGCGGAUGCCUCCAAA [A6C C16A U31C]	< 1e-05 s⁻¹	< 1e-05 s⁻¹	–	–
AUAAAGCCGCCAGAUCUACAGAAAUGUAGUUGACGAGGAGGAGGUUUAUCGAAUUUUCGGCGGAUGCCUCCAAA [A6G G7C A15U]	< 1e-05 s⁻¹	< 1e-05 s⁻¹	< 1e-05 s⁻¹	< 1e-05 s⁻¹
AUAAACGCGCCAGAACUACAGAAAUGUAGUUGACGAGGAGGAGGUUUAUCGAAUUUUCGGCGGAUUCCUUCAAA [A6C G66U C70U]	< 1e-05 s⁻¹	< 1e-05 s⁻¹	–	–
AUAAAGGCGCCUGAACUACAGAAAUGUAGUUGACGAGGAGGAGGUUUAUCGAGUUAUCGGCGGAUUCCUCCAAA [A6G A12U A53G U56A G66U]	< 1e-05 s⁻¹	–	–	–
